# Reference: the supplement of paper PMC10126150
# Sequences with one replicate were seen in a single cluster, so their values are uncertain.
# Test system: ATP
# Assay: switch fluorescence ratio, 500 uM ATP over buffer (Cy3 cluster intensity, sum of 5 cycles each) (fold (ratio)); higher = stronger signal-on switching upon ATP binding; sequences stand for … in TCGTCGGCAGCGTCAGATGTGTATAAGAGACAGTTTTTTTTTTTTTTTTTTTTTTTTT…TC
# Settings: aptamer strand: ATP DNA aptamer (quencher-CACCTGGGGGAGTATTGCGGAGGAAGG + anchor), 100 nM annealed; ATP concentration: 500 uM; one replicate
# Method in brief: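 The quencher-labelled ATP aptamer, at 100 nM, was annealed to Cy3-labelled switching-strand clusters on a modified Illumina MiSeq flow-cell. The clusters were imaged in selection buffer, then after 15 min with 500 uM ATP at 22 °C, and this buffer/ATP cycle ran five times with NaOH stripping and re-annealing between runs. Per-cluster fluorescence ratios, summed target-cycle over summed buffer-cycle Cy3 intensity, were averaged per switch-domain sequence. Clusters outside 100-1000 RFU were excluded.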
# 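Note: ATP exposure 15 min at 22 °C before imaging.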
row,Sequence,switch fluorescence ratio
1,AGAAGTCACG,1.07
2,ATCATTGCTA,0.922
3,GATCGGTCTC,0.954
4,CAGGATTATC,0.973
5,ATCCGGGTTA,1.01
6,TCAAGCGCCA,0.992
7,TATGTCGGTC,0.993
8,CGTAGTAAGT,1.09
9,CAGCTTCATA,0.998
10,TTATGGTGTT,0.989
11,AAAAAACA,1.11
12,ACCATAATCC,1.08
13,CGATTCCGTG,1.04
14,CGCTGAATGG,1.08
15,GTGGACTAAG,0.986
16,CAGGGTTGTC,1.02
17,ATACTCGCGA,1.18
18,ATGTGAGACT,1.18
19,TCCACCTGTG,1.4
20,GAATGAACAT,1.03
21,CTTTTGTATC,1.03
22,GTTGTGGCTT,0.985
23,CGCTCCATCG,1.06
24,CTACACTCGC,1.09
25,ATACCGTATA,1.17
26,CAGTAGTCAC,1.11

row,Sequence,switch fluorescence ratio
1,GCGAGAGTGG,1.01
2,ATAGGTGCT,1.07
3,TTGCTCAGAA,1.02
4,TCGGAAGTAA,1.07
5,AAATAAAGTG,0.947
6,TGCGGCACGG,1.02
7,AAGGACCGAC,1.44
8,GCCAGGGTTC,1.02
9,GCGAGACAAA,1.01
10,TTATTTTGCC,1.02
11,AGCGCAGAAT,0.98
12,AACAGAGCAA,2.39
13,CAGCGATTAA,0.983
14,ACCCTGCGGC,1.11
15,GCAGTTCAGC,0.982
16,TTGTGTACGT,0.954
17,CAAAGAACGG,1.04
18,CGATTCCTCC,2.38
19,ATACTGAGAT,1.01
20,CATGTTCGGC,1
21,ATCTAGGCCC,1.02
22,AGGATGTTA,0.958
23,CGGCATAAGA,1.07
24,GCTGCTCAAT,1.22
25,TCATTGAAGC,1.07
26,CCATTAGATC,1.03

row,Sequence,switch fluorescence ratio
1,TATAGAAGGA,0.971
2,GCATATAGGT,1.06
3,TAAGTTATTC,0.955
4,TGCCGGAGTG,1.01
5,GTTATTTGT,1.13
6,AGGACTCCAA,1.04
7,TCGCCCCGA,1.06
8,GGCTAGTGGT,0.964
9,GACTTGGCCG,0.986
10,CTAGTTTTGT,1.04
11,TGTTAGTAGG,1.02
12,TAGCCGCCGA,1.44
13,CGTTGATTGT,0.991
14,TTATAAACTC,1.06
15,TAGTACACCT,1.25
16,GGTTCGGCGA,0.959
17,AGACGGCCGT,1.37
18,GTGGATTCCG,0.975
19,CATTACGTCG,0.944
20,CTTAAAAGTC,0.988
21,ACGGCATGCG,1.02
22,ATCTAAATGA,0.966
23,ACGCGGTATG,0.972
24,AAGCATCCAT,1.02
25,CTTTTAAGG,0.986
26,AGGTTAATTC,0.995

row,Sequence,switch fluorescence ratio
1,TTTGTCTTCA,0.985
2,GCGAGAAGC,1
3,ACAAGTAGAA,0.992
4,TAGGCCAGGC,0.987
5,TAAGAGGTTA,1.04
6,CCCGTACGAG,1.18
7,ACGTGGCGA,1.03
8,TGTAGCTTAG,1.06
9,CCTATTATGC,1.14
10,CACTGGGCCG,0.976
11,AAATATGGCC,1.03
12,GATGAAATGC,1.85
13,TATCTTTGG,0.989
14,GGGTTTGGCA,0.996
15,GAGCCGGGA,1.04
16,GGGTCGATCA,0.952
17,CACCTCAACG,1.14
18,ATATTGACGT,1.04
19,ACCTAGTTGC,1.05
20,ATTGCGTTAA,0.972
21,ACCTTCAGGA,1
22,CCCAACCCT,1.01
23,GTTGTACTTT,1.05
